Laboratory results as given in PubChem BioAssay AID485364 (National Center for Advancing Translational Sciences (NCATS), 2010).
About 11,000 (3.1%) of roughly 360,000 compounds were called active. This list was built around the results that the source calls inconclusive (neither active nor inactive); the mix of calls is not that of the screen. The call rests on the fitted dose curve; in most records, active means well fitted inhibition curve with a large enough effect; inconclusive means small, poorly fitted or top-dose-only effect; inactive means no such curve, though single readings can be large or run the other way. Potencies of inconclusive entries are left out as doubtful fits.

target: Schistosoma mansoni thioredoxin glutathione reductase (TGR) (UniProt Q962Y6); experiment: qHTS Assay for the Inhibitors of Schistosoma Mansoni Peroxiredoxins; conditions: purified TGR, DTNB reduction, TNB absorbance 405 nm; series mostly up to 114 µM; further: nearly all actives have a fitted effect of over 60% in size
Procedure, shortened: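 Kinetic colorimetric format: TGR-catalysed, NADPH-driven DTNB reduction monitored via TNB absorbance. Enzyme dispensed at 20 nM; compound exposure 15 min at room temperature before reaction start.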
Potency means the concentration at half of the fitted maximal effect; tags describe the fitted curve by direction and shape.

Compound | Potency
O=C(O)CC1=C(O)C(=O)N(c2ccccc2)C1c1ccccc1 (centres undefined) | inconclusive [inhibitor, full curve]
COc1ccccc1N1CCN(C2CC(=O)N(c3ccc(F)cc3)C2=O)CC1 (centres undefined) | inconclusive [inhibitor, partial curve]
O=C(NCCC1CCCCN1S(=O)(=O)c1ccccc1)C(=O)NCc1ccco1 (centres undefined) | inconclusive [inhibitor, full curve, poor fit]
CN=C(C)c1c(O)c2ccccc2oc1=O | inactive
CCN1C(=O)/C(=C/C=C2\C=CN(CC)c3ccccc32)SC1=S | inconclusive [inhibitor, partial curve]
CC(=O)N1N=C(c2ccco2)CC1c1ccc(Br)cc1 (centres undefined) | inactive
Cc1ccc(C)c2sc(N3CCN(C(=O)C(C)(C)C)CC3)nc12 | inconclusive [inhibitor, single point]
CCOC(=O)c1cnc(SC2CC(=O)N(c3ccc(C)cc3)C2=O)nc1N (centres undefined) | inconclusive [inhibitor, partial curve]
CCC1(c2ccccc2)NC(=O)N(CC(=O)N(CC(=O)Nc2ccccc2C(F)(F)F)Cc2ccco2)C1=O (centres undefined) | inconclusive [inhibitor, full curve]
COc1ccc(C(=O)NCC(=O)OCC(=O)Nc2ccc(C)c(S(=O)(=O)N(C)C)c2)cc1OC | inconclusive [inhibitor, partial curve]
CCN(CC)S(=O)(=O)c1cc(C)ccc1NC(=S)Nc1cccnc1 | active: 22.4 µM
O=c1[nH]c(=O)n(Cc2ccc(F)cc2)c(O)c1C=NCCCN1CCOCC1 | inconclusive [inhibitor, partial curve]
O=C1C(=O)N(c2ccccn2)C(c2ccc(Br)cc2)/C1=C(/O)c1ccc(Br)cc1 (centres undefined) | inconclusive [inhibitor, single point]
Cc1cccc(Cc2c(C)nc3nc(SCC(=O)NCc4ccccc4)nn3c2C)c1 | inactive
COCCN(CCOC)Cc1cc(=O)oc2cc3c(cc12)CCC3 | inconclusive [inhibitor, single point]
N#CC(C#N)=C1C=C2C=C(N3CCCCC3)CCC2CC1 (centres undefined) | inconclusive [inhibitor, partial curve, poor fit]
O=S1(=O)NC2c3ccccc3CC2O1 (centres undefined) | active: 25.1 µM
CCOc1ccc(C(c2c(O)nc(SC)n(C)c2=O)c2c(O)nc(SC)n(C)c2=O)cc1 | active: 15.8 µM
COc1ccc(CCN(C)C2CCCN(C(=O)CCC(F)(F)F)C2)cc1OC (centres undefined) | inconclusive [inhibitor, single point]
Cc1cc(C(=O)CSc2nnc(-c3ccccc3)n2C)c(C)n1C | inconclusive [inhibitor, partial curve]
Cc1ccccc1CC(=O)N1CC(C)OC(C)C1 (centres undefined) | inactive
O=C(/C=C/c1ccco1)N/C(=C\c1ccccc1)C(=O)NCCc1nc2ccccc2[nH]1 | active: 50.1 µM
CN(CCOc1ccc(C=C2C(=O)NC(=O)NC2=O)cc1)c1ccccn1 | inconclusive [inhibitor, partial curve, poor fit]

Compound | Potency
O=C(C1=C(O)C(=O)N(c2ncccn2)C1c1ccc(Cl)cc1)c1ccco1 (centres undefined) | inconclusive [inhibitor, full curve]
Cc1nc(CCNC(=O)C2CCC(=O)N(Cc3cccc(F)c3)C2)sc1C (centres undefined) | inactive
O=C(NCc1ccc2c(c1)OCO2)c1ccc(C2SCC(=O)N2Cc2ccco2)cc1 (centres undefined) | inconclusive [inhibitor, full curve]
O=C(NCc1ccco1)c1sc2cc(F)ccc2c1Cl | inconclusive [inhibitor, partial curve]
O=C1Nc2ccccc2/C1=C\C(=O)c1ccccc1 | inconclusive [inhibitor, full curve, poor fit]
CCOc1cc(CNCCc2ccc(S(N)(=O)=O)cc2)ccc1OCc1ccccc1 | inactive
CC1CC(C)CN(C(=O)COC(=O)Cc2ccc(Br)cc2)C1 (centres undefined) | inconclusive [inhibitor, single point]
COC(=O)c1nnc(-c2ccccc2)nc1OC | inactive
CSc1nnc(C)c(=O)n1COC(=O)/C=C/c1ccccc1 | inconclusive [inhibitor, partial curve]
Oc1c(Cl)cc(Cl)cc1/C=N/c1ncn[nH]1 | active: 20 µM
CCN(CC)C(=O)CSc1nnc(-n2nc(C)cc2C)c2ccccc12 | inconclusive [inhibitor, single point]
Cc1cccc(NC(=O)c2nc[nH]c2C(=O)Nc2cccc(C)c2)c1 | inactive
COc1ccccc1-c1cn[nH]c1-c1ccc(OCc2ccc(F)cc2)cc1O | inactive
O=C(/C=C/c1ccc(O)cc1)c1ccc(NC2=C(N3CCCCC3)C(=O)c3ccccc3C2=O)cc1 | active: 25.1 µM
COc1cc(OC)c2c(C)cc(=O)oc2c1C(CCN1CCOCC1)c1ccc(N(C)C)cc1 (centres undefined) | inconclusive [inhibitor, partial curve]
C=C(C)CN(CC)C(=O)c1ccc(OC2CCN(S(=O)(=O)N(C)C)CC2)cc1 | inactive
CC1CN(C(=O)Nc2cccc(Cl)c2)C2(CCCCCC2)O1 (centres undefined) | inconclusive [inhibitor, single point]
COc1ccc(Nc2nc(Cl)nc(Nc3ccc(OC)cc3OC)n2)c(OC)c1 | inconclusive [inhibitor, partial curve]
O=C(NCc1ccco1)C1CCN(c2nc3ccccc3n2Cc2ccc(F)cc2)CC1 | inconclusive [inhibitor, partial curve]
CCCCn1c(O)c(/C=N/NC(=O)c2ccncc2)c(=O)[nH]c1=S | inconclusive [inhibitor, partial curve]
Cc1cc(C)nc(SC2CC(=O)N(c3ccc(Cl)cc3)C2=O)n1 (centres undefined) | inconclusive [inhibitor, partial curve]
Cc1ccccc1NC(=O)/C=C/c1ccc([N+](=O)[O-])s1 | inconclusive [inhibitor, full curve, poor fit]
CSc1sc(C(=O)Nc2ccc(F)cc2F)c2c1C=CCC2 | inconclusive [inhibitor, partial curve]

Compound | Potency
Cc1cc(N2CCN(C)CC2)nc2ccc(NC(=S)NCCC(C)C)cc12 | inconclusive [inhibitor, partial curve, poor fit]
O=C(CNC(=O)c1ccco1)NCC(=O)OC(C(=O)c1ccccc1)c1ccc(Cl)cc1 (centres undefined) | inconclusive [inhibitor, partial curve]
CCc1c(C)sc(NC(=S)Nc2cccnc2)c1C(=O)OC | inconclusive [inhibitor, full curve]
Cc1cc(C(=O)Cn2nnc3ccccc3c2=O)c(C)n1-c1c(C)n(C)n(-c2ccccc2)c1=O | inconclusive [inhibitor, partial curve]
Cc1ccc(Sc2ncccc2C(=O)NCc2cc([N+](=O)[O-])ccc2O)c(C)c1 | inconclusive [inhibitor, full curve]
O=C(Nc1cccc(-n2cccn2)c1)C1CCCN(Cc2cc3ccccc3[nH]2)C1 (centres undefined) | inconclusive [inhibitor, partial curve]
COc1cc(/C=C2\C(=O)NC(=O)N(c3ccc(C)cc3)C2=O)cc(OC)c1O | inconclusive [inhibitor, full curve]
Cc1ccc(S(=O)(=O)N2CCOCC2)cc1NC(=O)COC(=O)c1cccnc1Cl | inactive
Cc1ccccc1NC(=O)C1(NC(=O)c2cccc(N3C(=O)CSC3c3ccccc3)c2)CCCCC1 (centres undefined) | inactive
Cc1nn(C)c(Oc2ccccc2)c1CCNC(=O)CCl | inconclusive [inhibitor, partial curve]
Cc1ccccc1C(N)c1ccncc1 (centres undefined) | inconclusive [inhibitor, partial curve]
CC(=O)Nc1ccc2c(c1)C(C)(C)C(C)N2C (centres undefined) | inactive
O=C(C1CCN(S(=O)(=O)c2ccccc2)CC1)N1CCc2ccccc21 | inconclusive [inhibitor, partial curve]
COCc1ccc(C(=O)NC2CC(C)(C)Cc3c2cnn3-c2ccc(C)cc2)o1 (centres undefined) | inconclusive [inhibitor, partial curve]
CC(C)N=c1scc(-c2cccs2)n1/N=C/c1ccc(O)c(O)c1O | active: 20 µM
Fc1ccc2nc(N3CCCC3)sc2c1 | inconclusive [inhibitor, single point]
CCCC1Cc2c(sc(NC(=S)NC(=O)c3ccccc3)c2C#N)CO1 (centres undefined) | inconclusive [inhibitor, partial curve]
CC1=C(C(=O)Nc2ccc(C)cc2)C(c2ccc(C)o2)C2=C(CC(C)(C)CC2=O)N1 (centres undefined) | inconclusive [inhibitor, partial curve]
CCCC(=O)NC(=S)Nc1ccccc1F | inconclusive [inhibitor, partial curve]
Fc1ccccc1N1CCN(c2nnc(C(F)(F)F)c3nnn(Cc4ccccc4)c23)CC1 | inactive
O=C(c1ccc(Br)o1)N1CCN(Cc2ccc3c(c2)OCO3)CC1 | inconclusive [inhibitor, full curve]
O=C1CCCC(O)=C1C(C#Cc1ccccc1)C1=C(O)CCCC1=O | active: 3.16 µM
Cc1ccc(S(=O)(=O)N2CCC(C(=O)Nc3nnc(-c4ccco4)s3)CC2)cc1 | inconclusive [inhibitor, partial curve]
